Experimental data published in PubChem BioAssay AID1508624 (National Center for Advancing Translational Sciences (NCATS), 2021).
Hit rate of the full screen: of about 48,000 compounds, about 120 (0.25%) were called active. About 4% were inconclusive and are not listed. Calls come from the whole dose curve; as a rule, active = well fitted activation curve with a large enough effect; inconclusive = small, poorly fitted or top-dose-only effect, or another doubt; inactive = no such curve, though single readings can be large or run the other way. This is one part of the list.

Test: Primary qHTS for Identification of Small Molecule Activators of Huntingtin-Antisense Promoter Activity; note: nearly all actives have a fitted effect of over 55% in size
Conditions: HEK293 HTT-AS promoter firefly luciferase reporter (activity 0% = vehicle and -100% = no light), 24 h; series mostly up to 57.5 µM; activity change, positive = activation: at the top concentration
Method in brief: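 HEK293 cells carrying firefly luciferase reporters were seeded at 2,500 per well in Opti-MEM and cultured for 24 h. They were then treated with compounds at up to 57.5 uM final for 24 h at 37 degrees C before Dual-Glo luminescence readout.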

Activity change, positive = activation, inactive:
Cc1cc(OCC(=O)N(Cc2ccc(N(C)C)cc2)C2CCS(=O)(=O)C2)cc(C)c1Cl (stereo not drawn) -38.2%
CC(C)c1ccc(NC(=O)CC2Oc3ccccc3NC2=O)cc1 (stereo not drawn) -24.2%
O=C(OC1C[C@H]2CC[C@@H](C1)[N+]21CCCC1)C(O)(c1ccccc1)c1ccccc1 (stereo partly drawn) -10.4%
COc1ccccc1CCNC(=O)CCc1c(C)c2cc3c(C)c(C)oc3cc2oc1=O -5.04%
Cc1ccc(Cl)cc1NC(=O)CN1C(=O)COc2ccc(S(=O)(=O)N3CCCCCC3)cc21 -22%
Cc1ccc(NC(=O)C(=O)NCC(c2ccc3c(c2)OCO3)N2CCN(c3ccccc3)CC2)cc1 (stereo not drawn) -5%
O=C(c1cccs1)c1cn(CCOc2ccccc2Cl)c2ccccc12 -24.7%
CCN(C(=O)C(Cc1ccccc1)NS(=O)(=O)c1cccc2nsnc12)c1ccccc1 (stereo not drawn) -10.2%
CCN(CC)CC1CCCCN1CC(=O)N1c2ccccc2C(=O)Nc2cccnc21 (stereo not drawn) -1.99%
COc1ccc(CC(=O)NCC(c2cccs2)S(=O)(=O)c2ccc(Cl)cc2)cc1 (stereo not drawn) -17.3%
Cc1c(C(=O)N2CCCC2)oc2c1-c1nn(CC(=O)NC(C)c3ccccc3)cc1CC2 (stereo not drawn) -37.8%
CCC(C(=O)Nc1cc(OC)ccc1OC)n1c(C)c2cnn(-c3ccccc3)c(=O)c2c1C (stereo not drawn) -22.9%
Cc1cc(F)ccc1NC(=O)c1ccc2nc(Cc3ccccc3)oc2c1 -15.8%
COc1ccc(-n2ccn(CC(=O)NCc3ccc(C)cc3)c(=O)c2=O)cc1OC -6.08%
Cc1ccc(S(=O)(=O)NCCc2nnc3ccc(SCc4ccc(F)cc4)nn23)cc1 -33.5%
Cc1ccc2oc(C(=O)Nc3cccc(-c4nc5ccccc5s4)c3)c(C)c2c1 22.2%
Cc1ccc(Nc2ncc(C(=O)N3CCN(c4cccc(Cl)c4)CC3)c3ccccc23)cc1Cl -18.2%
COc1ccccc1Cn1cc(C(=O)c2ccc(F)cc2)c(=O)c2cc3c(cc21)OCO3 -3.85%
COc1ccccc1C(=O)c1cn(CC(=O)Nc2ccccc2F)c2nc(C)ccc2c1=O -9.88%
Cc1ccc(C)c(N2CCN(C(=O)c3cc(S(=O)(=O)N4CCC(C)CC4)cn3C)CC2)c1 -39.2%
COc1ccc(-c2noc(N3CCC(C(=O)N(C)c4cc(Cl)ccc4OC)CC3)n2)cc1 -70.8%
COc1ccc(CCNC(=O)CCc2cn(Cc3ccc(C)cc3)c3ccccc23)c(OC)c1OC -31.9%
CCOc1cc2[nH]c(=O)n(CCCCC(=O)N3CCN(c4ccccc4)CC3)c(=O)c2cc1OCC -14%
CCC(C)NC(=O)c1[nH]c2cc(C)ccc2c1Sc1ccc(Cl)cc1 (stereo not drawn) 0.858%
Cc1cccc(C)c1OCC(=O)Nc1c(C(=O)c2ccc(Br)cc2)oc2ccccc12 1.17%
O=C(CN1C(=O)COc2ccc(S(=O)(=O)N3CCCCCC3)cc21)N1CCN(c2cccc(C(F)(F)F)c2)CC1 -43.5%
COc1ccc2c(CNCCc3cccs3)c(C(=O)O)n(Cc3ccccc3C)c2c1 -30.7%
Cc1cccc(N2CCN(C(=O)C3CCN(S(=O)(=O)c4c(C)noc4C)CC3)CC2)c1C -38.3%
COc1ccc2oc(=O)c(-c3cn4c(n3)sc3cc(F)ccc34)cc2c1 -0.684%
NC(=O)Nc1sc(-c2ccc(F)cc2)cc1C(N)=O 21.7%
CCCn1c2ccccc2c2cnn(CC(=O)N(Cc3ccccc3)C(C)C)c(=O)c21 -22.5%
CCCCOc1ccc(S(=O)(=O)NCc2csc(-c3ccc(OC)cc3)n2)cc1 -27.5%
COc1ccc(NC(=O)Cn2c(=O)n(-c3ccc(C)cc3)c(=O)c3c2cnn3C)cc1 -7.81%
O=C(Nc1ccc2nc(SCC(=O)N3CCCC3)sc2c1)c1cccc(Cl)c1 -17.1%
CCN1CCCC1=O 0.0772%
CC(C)CCNC(=O)C1CCN(c2nc3ccc(Cl)cc3[nH]2)CC1 -24.3%
COc1ccc(C)cc1NC(=O)c1ccc(=O)n(Cc2ccccc2)c1 -13.7%
CCOC(=O)c1cc2c(=O)n3ccccc3nc2n(Cc2ccco2)c1=NC(=O)c1c(F)cccc1Cl -12.2%
CCOC(=O)c1c(C)[nH]c(C)c1S(=O)(=O)N(C)CC(=O)Nc1ccc(C)c(N(C)C)c1 -7.19%
COC(=O)c1cc2occc2n1Cc1nc(-c2cccc(Cl)c2)oc1C 18.2%
CC(C)(C)c1ccc(C(=O)NC2(C(F)(F)F)C(=O)Nc3c2c(=O)[nH]c(=O)n3-c2ccccc2)cc1 (stereo not drawn) -10.3%
Cc1cccn2c(=O)c3cc(C(=O)NCc4cccnc4)c(=N)n(CCCO)c3nc12 -27.2%
COC(=O)c1c(C)oc2ccc(N(C(=O)c3ccncc3)S(=O)(=O)c3c(C)cc(C)cc3C)cc12 -37.9%
CN1CCc2nc3sc(C(=O)Nc4ccccc4OC(F)(F)F)c(N)c3cc2C1 -14.5%
O=C(NCc1ccccc1)c1nc(S(=O)(=O)Cc2ccccc2)ncc1Cl -87%
Cc1sc2ncn(CC(=O)N3CCN(c4ccc(Cl)cc4)CC3)c(=O)c2c1S(=O)(=O)N1CCN(c2ncccn2)CC1 -11.9%
Cc1ccc(Cn2c(SCC(=O)C(C)(C)C)nc3ccsc3c2=O)cc1 -26.6%
CCCN(CCC)CCNC(=O)c1ccc2c(c1)NC(=O)C(CS(=O)(=O)Cc1cccc(Br)c1)N2 (stereo not drawn) -9.35%
COc1ccccc1N1CCN(S(=O)(=O)CCNC(=O)COc2ccc(C(C)C)cc2)CC1 -9.84%
Cc1sc2ncn(CC(=O)N3CCN(c4cccc(Cl)c4)CC3)c(=O)c2c1S(=O)(=O)N1CCN(c2ncccn2)CC1 -17.6%
COc1ccc(NC(=O)c2ccc3c(SCC(=O)O)c4c(nc3c2)CCC4)c(OC)c1 3.99%
CCOc1ccccc1N1CC(c2nc3ccccc3n2Cc2c(C)cc(C)cc2C)CC1=O (stereo not drawn) 11.3%
COc1ccc(-c2nc(C)c(CCNC(=O)C(=O)Nc3cc(C)cc(C)c3)s2)cc1OC 4.09%
N[C@@H](CC(=O)N1CCn2c(nnc2C(F)(F)F)C1)Cc1cc(F)c(F)cc1F -2.69%
COc1ccc(-c2nc(SCc3cc(=O)c4cc(C)ccc4[nH]3)n[nH]2)cc1 -31.6%
CCOCCCNC(=O)C(c1ccc(OC)cc1)N(Cc1ccc2c(c1)OCO2)C(=O)c1ccccc1O (stereo not drawn) -11.1%
Cc1ccccc1C(=O)Nc1c(C)nc(Nc2ccccc2)nc1Nc1ccccc1 -39.9%
CC(=O)N1c2ccc(S(=O)(=O)NCC3CCC(C(=O)Nc4cccc(C)c4C)CC3)cc2CC1C (stereo not drawn) -25.5%
